One test concerns HSkMC. Description: cytotoxicity call (relative viability < 0.9). Conditions: 10 µM.
Another test relates to HepG2. Description: cytotoxicity call (relative viability < 0.9). Conditions: 10 µM.
In a further test the test system is S. aureus RN4220. Nature of the test: growth inhibition call (relative growth <= 0.2). Conditions: 50 µM.

Some of the results follow.

`CSCC[C@H](N)C(=O)O`: the cytotoxicity call in the test with HSkMC and in the test with HepG2 was “inactive” throughout. Besides, the growth inhibition call in the test with S. aureus RN4220 is “inactive”.

Consider `C[C@@H]1CCCCO[C@@H](CN(C)C(=O)Nc2ccc(C(F)(F)F)cc2)[C@H](C)CN([C@H](C)CO)C(=O)c2cc(NS(C)(=O)=O)ccc2O1`, for which the cytotoxicity call in the test on HSkMC and in the test with HepG2 was “inactive” in each case. Also, in the test with S. aureus RN4220, the growth inhibition call is “inactive”.

On to `C[C@H]1CN([C@@H](C)CO)C(=O)Cc2cc(NC(=O)Nc3cccc4c3CCCC4)ccc2O[C@H]1CN(C)S(=O)(=O)c1ccc(Oc2ccccc2)cc1`, for which, in the test with HSkMC, the cytotoxicity call is “inactive”. Besides, the cytotoxicity call with HepG2 was “active”. For the same compound, the growth inhibition call with S. aureus RN4220 is “inactive”.

For the compound `C[C@H](CO)N1C[C@H](C)[C@H](CN(C)Cc2ccccc2)OCCCC[C@H](C)Oc2ccc(NC(=O)c3ccccc3)cc2C1=O`, the cytotoxicity call in the test on HSkMC and in the test on HepG2 was “inactive” each time. Further, in the test on S. aureus RN4220, the growth inhibition call was “inactive”.

On to `CCCNC(=O)N1C[C@@H](O)COC[C@@H]2O[C@H](CC(=O)N3CCN(C)CC3)CC[C@H]21`, for which the cytotoxicity call in the test with HSkMC and in the test with HepG2 was “inactive” in each case. Besides, the growth inhibition call in the test on S. aureus RN4220 was “inactive”.

`O=c1[nH]c2ccccc2c(=O)n1CCCO`: the cytotoxicity call in the test with HSkMC and in the test with HepG2 was “inactive” each time. The growth inhibition call in the test with S. aureus RN4220 was “inactive”.

For the compound `COc1ccc(S(=O)(=O)Nc2ccc3c(c2)CC(=O)N([C@H](C)CO)C[C@H](C)[C@H](CN(C)C(=O)NC(C)C)O3)cc1`, the cytotoxicity call in the test with HSkMC and in the test with HepG2 was “inactive” each time. Besides, the growth inhibition call in the test on S. aureus RN4220 is “inactive”.

In the case of `COc1ccc2c3c(n(c2c1)C)[C@@H](CO)N(CC1CC1)C[C@]13CCN(CC1)S(=O)(=O)c1cn(cn1)C`, the cytotoxicity call in the test on HSkMC and in the test on HepG2 was “inactive” throughout. Also, the growth inhibition call in the test with S. aureus RN4220 was “inactive”.

Regarding `CO[C@@H]1CN(C)C(=O)c2ccc(NC(=O)Nc3ccccc3F)cc2OC[C@H](C)N(Cc2ccccc2C(=O)O)C[C@H]1C`, the cytotoxicity call in the test with HSkMC and in the test on HepG2 was “inactive” throughout. Further, the growth inhibition call with S. aureus RN4220 is “inactive”.

Take `C[C@H]1CN([C@@H](C)CO)C(=O)c2cc(C#CCN(C)C)cnc2O[C@@H]1CN(C)C(=O)CCN1CCCCC1`: the cytotoxicity call in the test with HSkMC and in the test with HepG2 was “inactive” throughout. For the same compound, in the test on S. aureus RN4220, the growth inhibition call was “inactive”.

For the compound `C[C@@H]1CCCCO[C@H](CN(C)Cc2ccc3c(c2)OCO3)[C@H](C)CN([C@H](C)CO)C(=O)c2cc(NC(=O)C3CCCCC3)ccc2O1`, the cytotoxicity call in the test on HSkMC was “inactive”. Also, the cytotoxicity call with HepG2 was “active”. In the test on S. aureus RN4220, the growth inhibition call was “inactive”.

`Cc1ccc(S(=O)(=O)Nc2ccc3c(c2)C(=O)N([C@@H](C)CO)C[C@H](C)[C@@H](CN(C)C(=O)Nc2ccc(F)cc2)OCCCC[C@H](C)O3)cc1`: the cytotoxicity call in the test with HSkMC and in the test with HepG2 was “inactive” throughout. In the test with S. aureus RN4220, the growth inhibition call was “inactive”.

For the compound `COc1ccc(CN(C)C[C@H]2OCCCC[C@@H](C)Oc3ccc(NC(=O)C4CCCCC4)cc3C(=O)N([C@@H](C)CO)C[C@H]2C)cc1`, the cytotoxicity call with HSkMC and with HepG2 was “inactive” each time. Further, the growth inhibition call in the test with S. aureus RN4220 was “inactive”.

As to `Cn1cnc(S(=O)(=O)N[C@H]2C=C[C@H](CC(=O)NCC3CC3)O[C@@H]2CO)c1`, the cytotoxicity call in the test with HSkMC and in the test on HepG2 was “inactive” throughout. Besides, the growth inhibition call in the test on S. aureus RN4220 is “inactive”.

As to `COCC(=O)N1C[C@H](C)[C@H](OC)CN(C)C(=O)c2ccc(NC(=O)c3cc(C)on3)cc2OC[C@@H]1C`, the cytotoxicity call with HSkMC and in the test on HepG2 was “inactive” each time. For the same compound, in the test on S. aureus RN4220, the growth inhibition call was “inactive”.

Regarding `Cc1noc(C)c1S(=O)(=O)Nc1ccc2c(c1)C(=O)N([C@H](C)CO)C[C@H](C)[C@@H](CN(C)S(=O)(=O)c1ccc(Cl)cc1)O2`, the cytotoxicity call in the test on HSkMC and in the test on HepG2 was “inactive” each time. Also, in the test on S. aureus RN4220, the growth inhibition call is “inactive”.

For the compound `C[C@H](CO)N1C[C@H](C)[C@@H](CN(C)S(C)(=O)=O)OCCCC[C@H](C)Oc2ccc(NS(=O)(=O)c3ccccc3)cc2C1=O`, the cytotoxicity call with HSkMC and with HepG2 was “inactive” in each case. In addition, in the test on S. aureus RN4220, the growth inhibition call was “inactive”.

Regarding `C[C@@H]1CN([C@H](C)CO)C(=O)c2cccc(NC(=O)C3CC3)c2O[C@@H]1CN(C)Cc1ccc(-c2ccccc2)cc1`, the cytotoxicity call in the test on HSkMC and in the test on HepG2 was “inactive” throughout. Also, the growth inhibition call in the test on S. aureus RN4220 was “inactive”.

On to `COCc1cn(CC[C@H]2CC[C@@H](NC(=O)CCN3CCCCC3)[C@@H](CO)O2)nn1`, for which the cytotoxicity call with HSkMC and with HepG2 was “inactive” each time. In addition, the growth inhibition call in the test with S. aureus RN4220 was “inactive”.

On to `NCCS`, for which the cytotoxicity call in the test with HSkMC and in the test with HepG2 was “inactive” in each case. The growth inhibition call in the test on S. aureus RN4220 was “inactive”.

Take `C[C@@H]1CN([C@@H](C)CO)S(=O)(=O)c2ccc(-c3cncnc3)cc2O[C@@H]1CN(C)C(=O)Cc1cccnc1`: the cytotoxicity call in the test with HSkMC and in the test with HepG2 was “inactive” each time. In addition, the growth inhibition call with S. aureus RN4220 is “inactive”.

Take `C[C@@H]1CCCCO[C@H](CN(C)S(=O)(=O)c2cccs2)[C@H](C)CN([C@H](C)CO)C(=O)c2cc(NC(=O)Nc3ccc(F)cc3)ccc2O1`: the cytotoxicity call in the test with HSkMC is “inactive”. Further, the cytotoxicity call in the test on HepG2 is “active”. Besides, in the test with S. aureus RN4220, the growth inhibition call is “inactive”.

For `NC(=O)Nc1ccc(C(=O)O)cc1`, the cytotoxicity call in the test on HSkMC and in the test with HepG2 was “inactive” throughout. Further, the growth inhibition call with S. aureus RN4220 is “inactive”.

As for `CCOC(=O)c1ccc(O)cc1`, the cytotoxicity call with HSkMC and with HepG2 was “inactive” each time. The growth inhibition call with S. aureus RN4220 was “inactive”.

Consider `CNC(=O)c1ccc(CO)cc1`, for which the cytotoxicity call with HSkMC and in the test with HepG2 was “inactive” throughout. The growth inhibition call with S. aureus RN4220 was “inactive”.

As to `C[C@@H]1CCCCO[C@H](CN(C)S(=O)(=O)c2cn(C)cn2)[C@H](C)CN([C@@H](C)CO)C(=O)c2cc(NS(C)(=O)=O)ccc2O1`, the cytotoxicity call in the test with HSkMC and with HepG2 was “inactive” each time. Further, the growth inhibition call in the test with S. aureus RN4220 was “inactive”.

Regarding `O=C([O-])CCCc1ccccc1.[Na+]`, the cytotoxicity call in the test on HSkMC and with HepG2 was “inactive” each time. Further, the growth inhibition call with S. aureus RN4220 is “inactive”.

As to `C=CCOC(=O)[C@H]1[C@@H]2C(=O)O[C@@H](c3ccccc3)[C@@H](c3ccccc3)N2[C@@H](c2ccc(OCCOC(=O)[C@@H]3C[C@@H]4C(=O)NCC(=O)N4[C@@H]3c3cccc(OCCO)c3)cc2)[C@]12C(=O)Nc1ccccc12`, the cytotoxicity call in the test on HSkMC (human skeletal muscle cells) and in the test with HepG2 was “inactive” in each case. The growth inhibition call in the test on S. aureus RN4220 was “inactive”.
